# Results taken from PubChem BioAssay AID686970 (National Center for Advancing Translational Sciences (NCATS), 2013).
# In all, about 360,000 compounds went through this assay and about 6,000 (1.7%) were called active. The shares of active, inactive and inconclusive entries below differ from those in the screen. The call rests on the fitted dose curve; in most records, active means well fitted cell-killing curve with a large enough effect; inconclusive means small, poorly fitted or top-dose-only effect, or effect the other way; inactive means flat fitted curve, though single readings scatter. No potency is given beside an inconclusive call; the fits are too rough.
# Experiment: qHTS for induction of synthetic lethality in tumor cells producing 2HG: qHTS for the HT-1080-NT fibrosarcoma cell line;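 further: NT is the 2HG producing partner of a matched IDH1 knockdown line; nearly all actives have a fitted effect of over 55% in size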;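 on activity, negative = less viability: 0% = DMSO-treated cells and -100% = media-only wells without cells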
# Conditions: HT-1080-NT fibrosarcoma viability, CellTiter-Glo ATP luminescence, 48 h; activity, negative = less viability: at 46.1 µM (top of the series) unless noted
# Outline: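 A 48-hour cytotoxicity screen used HT-1080-NT cells plated 2 hours before compound delivery. ATP-based CellTiter-Glo luminescence measured viability, normalized to DMSO and no-cell controls.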
# Potency means the concentration at half of the fitted maximal effect; tags describe the fitted curve by direction and shape.
SMILES,Potency,"activity, negative = less viability"
COc1cc(NC(=O)c2cc(-c3cccc(O)c3)on2)cc(OC)c1OC,"inconclusive [cytotoxic, partial curve]",
CC(=O)N1c2ccc(S(=O)(=O)N3CCC(C(=O)N4CCCC(C)C4)CC3)cc2CC1C (stereo unspecified),"inconclusive [cytotoxic, partial curve]",
CCN(CC)CCn1c(=N)n(CC(O)COc2cccc(C)c2)c2ccccc21 (stereo unspecified),"inconclusive [cytotoxic, single point]",
COc1cc(OC)cc(C2=Cc3ccc(OC)cc3C(CC(C)=O)N2c2ccc(C#CC3(N)CCCCC3)cc2)c1 (stereo unspecified),active: 16.4 µM,
COc1ccccc1-c1ccc2c(c1)C(C)(Cc1ccc(Cl)c(Cl)c1)C(=O)N2 (stereo unspecified),"inconclusive [cytotoxic, single point]",
Cc1ccc2cccc(OC(=O)c3c(F)cccc3Cl)c2n1,,inconclusive: 33.3%
Cc1cccc(-c2nc(NCCCN(C)C)c3ccccc3n2)c1,"inconclusive [cytotoxic, single point]",
N=c1n(Cc2ccccc2)c2ccccc2n1CC(O)COc1ccccc1 (stereo unspecified),"inconclusive [cytotoxic, single point]",
COc1ccc(OC(F)(F)F)cc1CC1(C)C(=O)Nc2c(Cl)ccc(Cl)c21 (stereo unspecified),"inconclusive [cytotoxic, single point]",
NCCNc1ccc(C(=O)N2c3ccccc3Sc3ccccc32)cc1[N+](=O)[O-],"inconclusive [cytotoxic, partial curve]",
CC1CCN(CCCCOc2ccccc2-c2ccccc2)CC1,"inconclusive [cytotoxic, single point]",
Cc1ccccc1C(=O)Oc1cccc2c(O)cccc12,"inconclusive [cytotoxic, single point]",
Cc1nc(-c2ccc(C(=O)Nc3cc(S(N)(=O)=O)ccc3C)cc2)cs1,inactive,
COc1ccc(/C=C/C(=O)C23CC4CC(CC(C4)C2)C3)cc1CN1CCOCC1,"inconclusive [cytotoxic, single point]",
CC(=O)c1ccc(C(=O)N2CCC(CO)(Cc3cccc(C(F)(F)F)c3)CC2)cc1,"inconclusive [cytotoxic, single point]",
Cc1cc(C)n(-c2nc(NCc3cccnc3)c3c4c(sc3n2)COC(C)(C)C4)n1,"inconclusive [cytotoxic, partial curve]",
O=C(CC(=O)NCc1ccc(Cl)cc1)NCc1ccc(Cl)cc1,"inconclusive [cytotoxic, partial curve, poor fit]",
O=C1C=C(c2ccc3ncccc3c2)C[C@@H](c2ccc3c(c2)OCO3)C1,active: 10.3 µM,
CC(C)N(C(=O)[C@H]1C[C@H](CC(=O)NC(C)(C)C)C(=O)N2CCc3c([nH]c4cc(-c5ccco5)ccc34)[C@]12C)C(C)C,inactive,
COc1ccccc1-n1c(-c2ccccc2)c[n+]2c1CCc1ccccc1-2,active: 14.6 µM,
CN(C)/N=C/c1ccc(Sc2ccccc2[N+](=O)[O-])o1,"inconclusive [cytotoxic, single point]",
O=C(CCCCCNC(=O)c1ccccc1)N/N=C/c1ccccc1O,inactive,
CC1(C(=O)NS(=O)(=O)c2cccc(F)c2)CCN1C(=O)Cc1ccccc1 (stereo unspecified),inactive,
COCc1[nH]nc2c1C(c1ccc(F)cc1F)C(C#N)=C(N)O2 (stereo unspecified),inactive,

SMILES,Potency,"activity, negative = less viability"
CC(C)c1ccc(O)c(NC(=S)NC(=O)c2cccnc2)c1,"inconclusive [cytotoxic, partial curve]",
COc1ccc(CNC(=S)NCc2ccc(Cl)cc2)cc1OC,inactive,
Cc1ccc(-n2nc3c(N4CCC(C(=O)N5CCN(C)CC5)CC4)nnc(C)c3c2C)cc1,inactive,
COC1C=CC=C(C)C(=O)NC2=CC(=O)C(N)=C(CC(C)CC(OC)C(O)C(C)C=C(C)C1OC(N)=O)C2=O (stereo unspecified),"inconclusive [cytotoxic, full curve]",
O=C(Nc1nc2nc(-c3ccccc3)cc(-c3ccccc3)n2n1)c1ccco1,,inconclusive: -35.1% [cytotoxic]
COc1ccccc1-c1cccc2nccn12,inactive,
CCCN1CNc2c(c(=O)[nH]c(=S)n2CCc2ccccc2)C1,inactive,
CCOc1cc(CNS(=O)(=O)c2ccc3c(c2)CC(=O)N3C)cc(OCC)c1OCC,inactive,
CCC(C(=O)NC1CCCC1)n1c(C2CC2)nc2ccccc21 (stereo unspecified),inactive,
CC(=O)Nc1ccc(-c2ccnc3c2CC(C)(C(=O)NCc2ccco2)O3)cc1 (stereo unspecified),"inconclusive [cytotoxic, full curve]",
CC1CCC(C(C)C)C(NC(=O)c2ccncc2)C1 (stereo unspecified),"inconclusive [rising, single point]",
O=C(NCc1ccccc1)C(c1ccc(F)cc1)N1CCN(c2ccccc2F)CC1 (stereo unspecified),"inconclusive [cytotoxic, partial curve]",
C#CC[N+](C)(C)CCCCCCCCCC,"inconclusive [cytotoxic, single point]",
CC1(C(=O)NCC2CCCCC2)CCN1C(=O)Cc1ccc(-c2ccccc2)cc1 (stereo unspecified),"inconclusive [cytotoxic, single point]",
CCCCCCCCN1C(=O)[C@H](CC(=O)N2CCSCC2)C[C@@]2(C(=O)OC)CCCCC=C12,"inconclusive [cytotoxic, single point]",
Cc1[nH]n(-c2ccc(Cl)c(Cl)c2)c(=O)c1CCO,"inconclusive [cytotoxic, partial curve]",
COc1ccc(CCNC(=O)C(=O)NCC2OCCN2S(=O)(=O)c2ccccc2)cc1OC (stereo unspecified),inactive,
O=C(NC1CCN(C(=O)N2c3ccccc3Sc3ccccc32)CC1)c1ccccc1Cl,"inconclusive [cytotoxic, partial curve]",
CCN(CC)S(=O)(=O)c1ccc(N2CCN(c3ccccc3O)CC2)nc1,"inconclusive [cytotoxic, partial curve]",
O=C(c1ccccc1)c1cc([N+](=O)[O-])ccc1N1CCOCC1,active: 1.03 µM,
CCCC(=O)Nc1nc2ccc(NC(=O)c3c(F)c(F)c(OC)c(F)c3F)cc2s1,active: 1.03 µM,
CNC(=S)NNC(=O)c1cccc(N(C)C)c1,inactive,
O=C(Nc1ccccc1F)N1CCc2ccccc2C1,inactive,
Cc1[nH]c2c(Br)cccc2c1[C@H]1[C@@H](CC#N)C1(C)C,"inconclusive [cytotoxic, single point]",

SMILES,Potency,"activity, negative = less viability"
COc1cc(C(=S)N2CCOCC2)ccc1OC(=O)c1ccccc1C,inactive,
COC(=O)C1=CN(c2ccc(F)cc2)C(N)=C(C#N)C1c1cccc(F)c1 (stereo unspecified),"inconclusive [cytotoxic, single point]",
CC(C)Cn1c(SCC(=O)NC(=O)NC2CCCC2)nc2ccccc21,"inconclusive [cytotoxic, single point]",
CCOc1ncccc1C(=O)OCc1ccc(C(=O)OC)cc1,,inconclusive: -34.4% [cytotoxic]
CCOC(=O)C1(C)/C(=N/Nc2ccccc2OC)C(=O)C(=O)N1c1ccccc1 (stereo unspecified),inactive,
CCN(CC)CCCNC(=O)c1c(O)c2cc(F)cc3c2n(c1=O)C(C)CC3 (stereo unspecified),"inconclusive [cytotoxic, single point]",
COc1ccc(CC(N)c2csc(NC(=O)Nc3ccc(OC)cc3)n2)cc1 (stereo unspecified),active: 23.1 µM,
CCOC(=O)CC1(CC)Oc2ccccc2N1S(=O)(=O)c1ccc(C)cc1 (stereo unspecified),"inconclusive [cytotoxic, single point]",
CC(C)(C)c1ccc(OCc2ccc(C(=O)N/N=C/c3ccc(O)c(O)c3)cc2)cc1,active: 25.9 µM,
O=C(Nc1ccc2c(c1)OCO2)N1CCC(CO)(CC2CCCCO2)CC1 (stereo unspecified),inactive,
CN(C)c1ccc(CNC(=O)C2(C)Cc3c(-c4ccccc4)ccnc3O2)cc1 (stereo unspecified),"inconclusive [cytotoxic, single point]",
CCc1cc(=O)oc2c(C)c(OCC(=O)N3CCC[C@@H]3C(=O)O)ccc12,inactive,
COc1ccc(S(=O)(=O)N2CCCCC2)cc1NC(=O)CCNC(=O)c1ccc(Cl)cc1,inactive,
O=C(CN1CCC(C(=O)c2ccc3c(c2)OCCO3)CC1)Nc1ccccc1F,"inconclusive [cytotoxic, single point]",
CCOC(=O)c1c(C)[nH]c(C)c1C(=O)COC(=O)c1ccc(Cl)c(S(=O)(=O)NCc2ccccc2)c1,active: 18.4 µM,
Cc1ccc(C(=O)N/N=C/c2ccc([N+](=O)[O-])s2)cc1,"inconclusive [cytotoxic, partial curve, poor fit]",
Cc1ccc(S(=O)(=O)N(CC(=O)N/N=C/c2cccc3c2OCCO3)c2ccccc2F)cc1,"inconclusive [cytotoxic, single point]",
COc1ccc(C(CNC(=O)c2ccc(C)c(S(=O)(=O)Nc3ccccc3OC)c2)N2CCCC2)cc1 (stereo unspecified),"inconclusive [cytotoxic, partial curve]",
O=C(OCc1nc2ccsc2c(=O)[nH]1)c1ccc(Cl)s1,inactive,
O=C(CCl)N(CCCNC(=O)C(F)(F)F)c1ccc([N+](=O)[O-])cc1,active: 20.6 µM,
Oc1ccc(Cl)cc1C=Nc1ccc(Br)cc1,"inconclusive [cytotoxic, single point]",
COc1ccc(CNC(=O)C(c2ccc(C)o2)N(Cc2cccs2)C(=O)Cc2cccs2)cc1 (stereo unspecified),"inconclusive [cytotoxic, partial curve]",
COCCCNC(=O)CCn1c(=O)c2ccccc2n(CC(=O)Nc2ccc(C)cc2C)c1=O,"inconclusive [cytotoxic, single point]",
